# Experimental data published in PMC4336329 (PLoS ONE, 2015).
# The whole screen tested about 310,000 compounds, of which about 2,200 (0.71%) showed an effect of 50% or more. The effect is printed as a negative number. The list shows a part of the results.
# Target: human ether-à-go-go-related gene (hERG) potassium channel (human, UniProt Q12809)
# Experiment: primary screen, population patch clamp on CHO cells stably expressing hERG
# Chain of human ether-à-go-go-related gene (hERG) potassium channel (Q12809 whole entry, looked up): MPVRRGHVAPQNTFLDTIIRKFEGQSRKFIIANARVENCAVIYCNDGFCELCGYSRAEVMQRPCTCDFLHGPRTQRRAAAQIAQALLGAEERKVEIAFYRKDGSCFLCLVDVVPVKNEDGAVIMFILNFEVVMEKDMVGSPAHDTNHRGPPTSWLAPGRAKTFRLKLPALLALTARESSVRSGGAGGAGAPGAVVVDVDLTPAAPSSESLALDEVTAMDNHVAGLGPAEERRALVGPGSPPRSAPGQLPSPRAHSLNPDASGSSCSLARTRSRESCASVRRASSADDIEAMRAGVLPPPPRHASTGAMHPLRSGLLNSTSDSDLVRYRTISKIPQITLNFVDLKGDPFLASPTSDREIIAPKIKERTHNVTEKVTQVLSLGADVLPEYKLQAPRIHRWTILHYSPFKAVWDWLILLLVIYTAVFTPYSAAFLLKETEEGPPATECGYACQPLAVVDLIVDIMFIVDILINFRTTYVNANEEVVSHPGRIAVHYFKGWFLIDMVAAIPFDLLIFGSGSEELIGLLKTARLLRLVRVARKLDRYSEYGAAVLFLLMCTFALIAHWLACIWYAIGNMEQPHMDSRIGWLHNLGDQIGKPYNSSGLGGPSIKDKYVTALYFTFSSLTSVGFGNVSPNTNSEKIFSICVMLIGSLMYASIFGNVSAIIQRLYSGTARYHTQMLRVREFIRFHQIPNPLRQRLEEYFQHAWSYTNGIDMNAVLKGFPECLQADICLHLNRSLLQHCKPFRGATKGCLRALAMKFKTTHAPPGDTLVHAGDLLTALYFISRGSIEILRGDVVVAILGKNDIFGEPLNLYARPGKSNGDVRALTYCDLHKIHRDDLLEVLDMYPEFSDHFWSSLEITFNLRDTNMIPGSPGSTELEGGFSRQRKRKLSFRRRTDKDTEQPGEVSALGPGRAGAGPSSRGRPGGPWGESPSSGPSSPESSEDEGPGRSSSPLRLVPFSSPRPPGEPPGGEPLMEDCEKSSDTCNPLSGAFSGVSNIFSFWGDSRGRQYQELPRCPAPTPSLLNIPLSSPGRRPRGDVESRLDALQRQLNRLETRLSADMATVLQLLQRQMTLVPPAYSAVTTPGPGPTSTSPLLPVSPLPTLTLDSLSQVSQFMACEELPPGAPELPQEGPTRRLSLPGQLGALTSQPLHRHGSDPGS
row,Compound,"hERG current change (%, negative = inhibition) at 1uM"
1,COCCNC(=S)N/N=C/c1ccccc1C(=O)O,2.68%
2,CCOC(=O)c1sc2ncnc(OC)c2c1C,12.9%
3,O=C(Nc1ccc2c(c1)OCCO2)c1ccc(Cl)c(S(=O)(=O)N2CCCCC2)c1,3.5%
4,CCC(C)(C(=O)NC1CCCCC1)N(Cc1ccco1)C(=O)c1cnccn1 (centres unmarked),-4.04%
5,COc1cccc2c1c(NC(=O)c1cc(C)on1)nn2C,12.8%
6,C=CCOc1cccc(C(=O)N2CCCC(CCC(=O)NCc3ccccc3F)C2)c1 (centres unmarked),3.54%
7,C1COCCO1.CCOc1ccc(N2C(=O)CC(N(CCc3ccc(OC)c(OC)c3)C(=S)Nc3ccccc3)C2=O)cc1 (centres unmarked),7.55%
8,Cc1occc1C(=O)N(C)Cc1nc(-c2ccccc2)no1,4.33%
9,NC(=O)N/N=C/c1cccc(OCc2ccc(F)cc2)c1,9.59%
10,CN(C)c1nc(N/N=C\c2ccc(Cl)c([N+](=O)[O-])c2)nc(Nc2ccc(F)cc2)n1,-2.57%
11,CCOC(=O)/C(C#N)=C/c1c(N2CCN(c3ccccc3)CC2)nc2ccccn2c1=O,1.9%
12,NP(=O)(OCCCc1ccccc1)c1ccccc1 (centres unmarked),12.5%
13,CC(C)C(=O)Nc1ccc(NC(=S)NC(=O)c2ccc([N+](=O)[O-])cc2)cc1,-5.14%
14,O=C1c2ccccc2C(Nc2ccccc2F)N1c1cccnc1 (centres unmarked),2.3%
15,CCOc1ccc(NC(=O)N2CC=C(n3c(=O)[nH]c4ccccc43)CC2)cc1,5.69%
16,Cc1ccc2sc(NNC(=O)c3cc(-c4cccs4)nc4ccccc34)nc2c1C,9.54%
17,COc1ccc(OCc2nnc(SCc3ccc(C(=O)O)cc3)o2)cc1,16.6%
18,Cc1cc(NC(=O)CSc2nc3ccccc3c(=O)n2C(C)c2ccccc2)no1 (centres unmarked),8.49%
19,CCOc1cccc(C(=O)Nc2ccc(N3CCN(S(C)(=O)=O)CC3)cc2)c1,5.55%
20,COc1ccccc1N1CCN(C(=O)C(=O)c2c[nH]c3ccccc23)CC1,12.9%
21,O=C(CCC(=O)c1ccc(F)cc1)Nc1cccc(Br)c1,11%
22,CN(CC(=O)Nc1ccc(OC(F)(F)F)cc1)C(=O)c1ccc(N2CCCC2=O)cc1,3.68%
23,COc1ccc(CCn2nc(C)c([N+](=O)[O-])c2C)cc1,7.6%

row,Compound,"hERG current change (%, negative = inhibition) at 1uM"
1,COc1cc(/C=N/NC(=O)c2cccc([N+](=O)[O-])c2)ccc1OCc1ccccc1,4.07%
2,CC(OC(=O)c1ccc(O)cc1)C(=O)Nc1cc(C(F)(F)F)ccc1Cl (centres unmarked),7.01%
3,COc1ccc(Br)cc1S(=O)(=O)n1c([N+](=O)[O-])cnc1C,19%
4,COc1ccc(Nc2ccc(C(F)(F)F)cc2[N+](=O)[O-])cn1,14.1%
5,CC1(NC(=O)CC(c2ccccc2)(c2ccccc2)c2ccccc2)CCN(CCCc2ccccc2)C1=O (centres unmarked),14.7%
6,Brc1ccc(-n2cc(-c3ccccc3)c3c(NN4CCOCC4)ncnc32)cc1,4.71%
7,C=C(C)CNC(=S)NNC(=O)CCn1c2ccc(Cl)cc2c2cc(Cl)ccc21,5.97%
8,O=C(OCC(=O)N(CCc1ccccc1)Cc1ccccc1)c1ccccc1O,10.1%
9,CC(=O)N1c2ccccc2C(C)=CC1(C)C,12.5%
10,CN(C)S(=O)(=O)c1ccc(NC(=O)CSc2ncnc3ccccc23)cc1,10.3%
11,CCCCn1nnnc1SCC(=O)N1CCCC1,13.1%
12,O=S(=O)(c1cccc2cccnc12)N(CCO)CCO,18.1%
13,COC(=O)c1scc(C#N)c1N/N=C(\C#N)S(=O)(=O)c1ccc(Cl)cc1,8.9%
14,CN(CC(=O)Nc1ccccc1Oc1ccccc1)Cc1ccccc1F.O=C(O)C(=O)O,11.4%
15,COc1cc(SC)ccc1C(=O)NCC1CCCCC1,4.23%
16,O=C1Nc2ncccc2OC1CCCl (centres unmarked),11.4%
17,CC(Cc1cccnc1)NC(=O)c1ccccc1OC1CCN(S(C)(=O)=O)CC1 (centres unmarked),9.74%
18,CCOC(=O)C1(Cc2cccc(Cl)c2)CCCN(C(=O)c2ccco2)C1 (centres unmarked),16.6%
19,CCOC(=O)C(=O)N/N=C(/c1ccccc1)c1ccc(OC)cc1,11.1%
20,CC(C)CSc1nc2ccccc2[nH]1,13%
21,Cc1ccc(C(=O)Nc2ncc(Cc3ccccc3)s2)o1,-2.28%
22,Cc1cccc(CNC(=O)CCc2nnc(C3CCCCC3)o2)c1,9.53%
23,Cc1ccccc1N=Nc1c(N)n[nH]c1N,3.57%

row,Compound,"hERG current change (%, negative = inhibition) at 1uM"
1,COc1ccc(OC)c(NC(=O)COC(=O)c2ccc(OC)c(S(=O)(=O)N3CCOCC3)c2)c1,8.3%
2,O=C(CSc1ccc2ccccc2n1)N/N=C/c1ccc(O)cc1,2.89%
3,COCc1cc(C)nc(SCC(=O)Nc2ccc(C)c(C)c2)c1C#N,1.69%
4,COc1ccc(OC)c(C(=O)Cn2cnc3ccccc3c2=O)c1,1.84%
5,CCCN1CCc2c(sc3nc(SC)n(-c4ccccc4)c(=O)c23)C1,5.03%
6,COc1ccc2nc(NC(=O)CSc3nnc(N)s3)sc2c1,10.3%
7,CCOC(=O)C1CCN(C(=O)C2CCCN(S(=O)(=O)c3ccc(OCC)c(Cl)c3)C2)CC1 (centres unmarked),-13.9%
8,COc1ccc2[nH]c(=O)c(CN(CC3CCCO3)C(=S)Nc3cccc(C)c3)cc2c1 (centres unmarked),25.9%
9,COc1ccc(CCNC(=O)/C=C\c2ccccc2)cc1OC,4.35%
10,CC[N+](CC)(CC)CCOc1ccc(/C=C/c2ccccc2)cc1.[I-],1.94%
11,COc1cccc(-c2csc(N3CCN(C(=O)Nc4ccccc4OC)CC3)n2)c1,0.646%
12,Cc1cccc[n+]1CC(=O)c1ccc2c(c1)OCCO2.[Br-],1.08%
13,CC/C(=N/O)c1cnnc(SC)n1,8.46%
14,Cl.Clc1ccccc1CN1CCN(/N=C/c2ccncc2)CC1,9.95%
15,CC(=O)NCCC(Cc1ccccc1)c1ccco1 (centres unmarked),10.8%
16,COc1cccc(CNC(=O)c2ccc(C)c(NC3=NC4CS(=O)(=O)CC4S3)c2)c1 (centres unmarked),6.73%
17,N#CCSc1nc2c(c(C3CC=CCC3)c1C#N)CCC2 (centres unmarked),18.3%
18,NNc1nc(C(F)(F)F)nc2ccccc12,30.1%
19,CC(NC(=O)CNC(=S)N(Cc1cccs1)C1CCCC1)c1ccccc1 (centres unmarked),-5.94%
20,Oc1c(C(c2ccco2)N2CCC3(CC2)OCCO3)sc2ncnn12 (centres unmarked),0.42%
21,COc1ccc(OC(C)C(=O)N2CCC(C)CC2)cc1 (centres unmarked),8.02%
22,COc1cccc(-c2ccc(NC(=O)C3CCCN(CCCn4nc(C)cc4C)C3)cc2)c1 (centres unmarked),-15.9%
23,CN(C)C(CNC(=O)c1ccc(OCc2cn3ccccc3n2)cc1)c1ccco1 (centres unmarked),3.22%

row,Compound,"hERG current change (%, negative = inhibition) at 1uM"
1,COc1ccc(Cl)cc1NC(=O)c1cccc(NC(=O)CCC(=O)O)c1,6.71%
2,O=C(Cc1c[nH]c2ccccc12)N/N=C/c1ccc(F)cc1,13.1%
3,Cc1ccc(C)c(NC(=O)CCC(=O)OC(C(=O)c2ccccc2)c2ccccc2)c1 (centres unmarked),-6.38%
4,CC1CC(NC(=O)c2cnc3n(c2=O)CCS3)CC(C)(C)C1 (centres unmarked),10.7%
5,Cc1c(Cc2ccc3c(c2)OCO3)sc(NC(=O)C2CC2)c1C(N)=O,1.07%
6,Cc1ccc(C)c(NC(=S)N2CCN(CCO)CC2)c1,5.15%
7,CCOC(=O)c1cnc2ccc(C)cc2c1NCCO,-26.3%
8,CCc1nnc(NC(=O)c2cccc(C(=O)Nc3nnc(CC)s3)n2)s1,4.29%
9,COc1ccc(C(=O)OCC(=O)NCC2CCCCC2)cc1S(=O)(=O)N1CCCc2ccccc21,13.6%
10,CCOc1cc(S(=O)(=O)NCCCN2CCOCC2)c(C)cc1C,1.48%
11,Cc1ccc(C(=O)Nc2cc(C)c(OCC(=O)N3CCOCC3)c(C)c2)cc1,-5.89%
12,COc1ccc(-n2nc(C(=O)NCC(=O)NCCCN3CCN(C)CC3)c3ccccc3c2=O)cc1OC,12.3%
13,O=C(C1CCCO1)N1CCN(C(=S)Nc2ccccc2F)CC1 (centres unmarked),4.51%
14,COc1ccc(C(=O)N(Cc2nc(-c3ccc(C)cc3)no2)C2CCCCC2)cc1OC,4.53%
15,CC(=O)c1cccc(NC(=O)CSc2nc(N3CCOCC3)nc(N3CCOCC3)n2)c1,9.89%
16,COc1ccc(S(=O)(=O)N2CCCCCC2)cc1NS(=O)(=O)c1cc(C(=O)O)cc(C)c1C,1.73%
17,CSc1nc2c(c(=O)[nH]1)C(c1ccncc1)C(C(=O)OC(C)C)=C(C)N2 (centres unmarked),6.55%
18,Cc1ccccc1C(=O)OCc1cnc(Cl)s1,15.9%
19,Cn1c(=O)n(C)c2cc([N+](=O)[O-])c(N3CCNCC3)cc21,4.9%
20,COC(=O)[C@H]1C2CCC(C(=O)OC)(CC2)[C@H]1C(=O)OC,17.8%
